In patent US9718818B2, “Compounds inhibiting leucine-rich repeat kinase enzyme activity” (MERCK SHARP & DOHME CORP., priority 2013, dated 2017) one finds IC50 data, which are given here for 75 compounds.

The target of the first experiment is LRRK2 (G2019S mutation, GST-LRRK2 (amino acids 970-2527)) (Homo sapiens, UniProt Q5S007, G2019S). Nature of the experiment: LRRK2 Km ATP LanthaScreen Assay. As to conditions: IC50 (nM), mean IC50 of several tests, fluorescein LRRKtide substrate, TR-FRET. In general terms: Time-resolved FRET reads energy transfer from a long-lived donor to a nearby acceptor.
As for `COCCNc1cc(-c2n[nH]c3cnc(-c4cnccc4OC)cc23)ccn1` [Example A1], the IC50 is 0.6 nM. In other words, the sub-nanomolar range.

For `CN1CCN(c2cc(-c3n[nH]c4ccc(OC5(C)CC5)nc34)ncn2)CC1` [Example AB1], the IC50 turned out to be 593 nM. Against the preceding compound, the IC50 is about 990-fold higher.

`OC1CN(c2cc(-c3n[nH]c4cnc(-c5cccnc5)cc34)ccn2)C1` [Example B1.2]: the half-maximal inhibitory concentration (IC50) was found to be 3 nM.

In turn, `O[C@@H]1CCN(c2cc(-c3n[nH]c4cnc(-c5cccnc5)cc34)ccn2)C1` [Example B1.3] displayed an IC50 of 4.4 nM.

Turning to `O[C@H]1CCN(c2cc(-c3n[nH]c4cnc(-c5cccnc5)cc34)ccn2)C1` [Example B1.4], the IC50 came to 2.1 nM.

Consider `COc1ccncc1-c1cc2c(-c3ccnc(N4CCC4)c3)n[nH]c2cn1` [Example B1.6], for which the IC50 turned out to be 0.65 nM. This IC50 is about 3.2-fold lower than that of the compound before.

Compound `COc1ccncc1-c1cc2c(-c3ccnc(N4CC[C@H](O)C4)c3)n[nH]c2cn1` [Example B1.7] registered an IC50 of 0.69 nM.

`COc1ccncc1-c1cc2c(-c3ccnc(N4CC(OC)C4)c3)n[nH]c2cn1` [Example B1.8]: the IC50 is 0.7 nM.

Take `COc1ccncc1-c1cc2c(-c3ccnc(N4CCOCC4)c3)n[nH]c2cn1` [Example B1.9]: the IC50 was less than 0.6 nM.

For `COc1ccc(-c2cc3c(-c4ccnc(N5CCOCC5)c4)n[nH]c3cn2)c(OC)n1` [Example B1.10], the IC50 worked out at 189 nM.

Compound `COc1ncc(F)cc1-c1cc2c(-c3ccnc(N4CCOCC4)c3)n[nH]c2cn1` [Example B1.11] had an IC50 of 382 nM.

With `COc1ccncc1-c1ccc2[nH]nc(-c3ccnc(N4CCOCC4)c3)c2n1` [Example B1.12], the midpoint of inhibition, the IC50, lay at 2.5 nM.

In the case of `Cn1cc(-c2ccc3[nH]nc(-c4ccnc(N5CCOCC5)c4)c3n2)cn1` [Example B1.13], inhibition was half-maximal at 2.66 nM (IC50).

On to `COC1CN(c2cc(-c3n[nH]c4cnc(-c5cccnc5)cc34)ccn2)C1` [Example B1], for which 7.3 nM corresponded to half-maximal inhibition (IC50).

The compound `CO[C@H]1CCN(c2cc(-c3n[nH]c4cnc(-c5cccnc5)cc34)ccn2)C1` [Example B2.1] had an IC50 of 1.2 nM. This IC50 lies about 6.1-fold lower than the previous one.

`CO[C@@H]1CCN(c2cc(-c3n[nH]c4cnc(-c5cccnc5)cc34)ccn2)C1` [Example B2.2] displayed an IC50 of 1.2 nM. That is a single-digit nanomolar value.

Regarding `Cn1cc(-c2cc3c(-c4ccnc(-n5ccnc5)c4)n[nH]c3cn2)cn1` [Example B3.1], the IC50 was 7.2 nM.

Take `c1cc(-c2n[nH]c3cnc(C4CC4)cc23)cc(N2CCOCC2)n1` [Example C1]: the IC50 amounted to 53 nM.

The compound `COC1CN(c2cc(-c3n[nH]c4cnc(-c5cnn(C)c5)cc34)ccn2)C1` [Example D1.1] displayed an IC50 of 1.04 nM. This IC50 is about 51-fold lower than that of the compound before.

Take `Cn1cc(-c2cc3c(-c4ccnc(N5CCOCC5)c4)n[nH]c3cn2)cn1` [Example D1.2]: the IC50 is less than 0.6 nM.

On to `COCCNc1cc(-c2n[nH]c3cnc(-c4cnn(C)c4)cc23)ccn1` [Example D1.3], for which the IC50 was 2.35 nM. That is a single-digit nanomolar value.

Compound `Cn1cc(-c2cc3c(-c4ccnc(N5CC(F)C5)c4)n[nH]c3cn2)cn1` [Example D2.1] registered an IC50 of 3.8 nM.

`CS(=O)(=O)N1CCN(c2cc(-c3n[nH]c4cnc(C5CC5)cc34)ccn2)CC1` [Example E1] displayed an IC50 of 97.8 nM.

For the compound `COC1CCN(c2cc(-c3n[nH]c4cnc(C5CC5)cc34)ccn2)CC1` [Example E2], the IC50 turned out to be 155 nM.

`CN1CCN(c2cc(-c3n[nH]c4cnc(C5CC5)cc34)ccn2)CC1` [Example E3] returned an IC50 of 139 nM. This IC50 and that of the compound before are within 1.5-fold of each other.

In the case of `COc1cc2c(-c3ccnc(N4CCOCC4)c3)n[nH]c2cn1` [Example F1], the IC50 is 52.5 nM.

In turn, `COc1cc2c(-c3ccnc(N4CCN(C)C(=O)C4)c3)n[nH]c2cn1` [Example F2] returned an IC50 of 217 nM. This IC50 lies about 4.1-fold higher than the previous one.

`FCCOc1cc2c(-c3ccnc(N4CCOCC4)c3)n[nH]c2cn1` [Example G1] yielded an IC50 of 149 nM.

Regarding `C=CCOc1cc2c(-c3ccnc(N4CCOCC4)c3)n[nH]c2cn1` [Example G2], the concentration for half-maximal inhibition (IC50) is 104 nM.

`CCCOc1cc2c(-c3ccnc(N4CCOCC4)c3)n[nH]c2cn1` [Example G3]: the IC50 came to 94.7 nM. This IC50 and that of the compound before are within 1.5-fold of each other.

Take `FC(F)COc1cc2c(-c3ccnc(N4CCOCC4)c3)n[nH]c2cn1` [Example G4]: the IC50 came out at 186 nM.

On to `[2H]C([2H])([2H])C([2H])(Oc1cc2c(-c3ccnc(N4CCOCC4)c3)n[nH]c2cn1)C([2H])([2H])[2H]` [Example G5], for which the IC50 is 26.7 nM.

For the compound `[2H]C([2H])([2H])C([2H])(Oc1cc2c(-c3ccnc(N4C([2H])([2H])C([2H])([2H])OC([2H])([2H])C4([2H])[2H])c3)n[nH]c2cn1)C([2H])([2H])[2H]` [Example G6], the IC50 was 43.1 nM.

For `FC(F)Oc1cc2c(-c3ccnc(N4CCOCC4)c3)n[nH]c2cn1` [Example G7], half-maximal inhibition (IC50) was put at 49 nM.

The compound `FC(F)(F)COc1cc2c(-c3ccnc(N4CCOCC4)c3)n[nH]c2cn1` [Example G8] had an IC50 of 433 nM.

Regarding `Clc1ncc2[nH]nc(-c3ccnc(N4CCOCC4)c3)c2n1` [Example H1], inhibition was half-maximal at 1400 nM (IC50).

`CC(C)Oc1ncc2[nH]nc(-c3ccnc(N4CCOCC4)c3)c2n1` [Example H2] came in with an IC50 of 26.8 nM.

As to `COc1ccc2[nH]nc(-c3ccnc(N4CCOCC4)c3)c2n1` [Example I1], the IC50 amounted to 42.9 nM.

With `Oc1ccc2[nH]nc(-c3ccnc(N4CCOCC4)c3)c2n1` [Example I2], half-maximal inhibition (IC50) was put at 814 nM.

Staying with this experiment, now noted: LRRK2 IC50 (nM), mean IC50 of several tests, fluorescein LRRKtide substrate, TR-FRET.
Turning to `CC(C)Oc1cc2c(-c3ccnc(N4CCOCC4)c3)n[nH]c2cn1` [Example J1], the IC50 was determined as 7.15 nM.

`CC(C)Oc1cc2c(-c3ccnc(N4CC5CCC(C4)O5)c3)n[nH]c2cn1` [Example J2] returned an IC50 of 64 nM.

The compound `CC(C)Oc1cc2c(-c3ccnc(N4CCOC5(CC5)C4)c3)n[nH]c2cn1` [Example J3] yielded an IC50 of 11.9 nM.

Turning to `CC(C)Oc1cc2c(-c3ccnc(N4C5CCC4COC5)c3)n[nH]c2cn1` [Example J4], the midpoint of inhibition, the IC50, lay at 85.4 nM.

For the compound `CC(C)Oc1cc2c(-c3ccnc(N4CCC(O)CC4)c3)n[nH]c2cn1` [Example J5], the IC50 came to 37 nM.

The compound `CC(C)Oc1cc2c(-c3ccnc(N4CCN(CCO)CC4)c3)n[nH]c2cn1` [Example J6] gave an IC50 of 16 nM.

As for `CC(C)Oc1cc2c(-c3ccnc(N4CCCCC4)c3)n[nH]c2cn1` [Example J7], 45 nM corresponded to half-maximal inhibition (IC50).

Consider `CC(C)Oc1cc2c(-c3ccnc(N4CCCC4)c3)n[nH]c2cn1` [Example J8], for which inhibition was half-maximal at 28 nM (IC50).

Compound `COC1CCCN(c2cc(-c3n[nH]c4cnc(OC(C)C)cc34)ccn2)C1` (stereo not drawn) [Example J9] yielded an IC50 of 51 nM.

`CC(C)Oc1cc2c(-c3ccnc(N4CCN(C)CC4)c3)n[nH]c2cn1` [Example J10] displayed an IC50 of 24 nM.

`CC(C)Oc1cc2c(-c3ccnc(N4CCC(O)C4)c3)n[nH]c2cn1` (stereo not drawn) [Example J11] showed an IC50 of 31 nM.

Consider `CC(C)Oc1cc2c(-c3ccnc(N4CCN(c5ncccn5)CC4)c3)n[nH]c2cn1` [Example J12], for which half-maximal inhibition (IC50) was put at 51 nM.

The compound `CCN(CC)C1CCN(c2cc(-c3n[nH]c4cnc(OC(C)C)cc34)ccn2)C1` (stereo not drawn) [Example J13] yielded an IC50 of 29 nM.

Compound `CC(C)Oc1cc2c(-c3ccnc(N4CC(S(C)(=O)=O)C4)c3)n[nH]c2cn1` [Example J14] gave an IC50 of 48 nM. Against the preceding compound, the IC50 is about 1.7-fold higher.

In turn, `CC(C)Oc1cc2c(-c3ccnc(N4CCN(C)C(=O)C4)c3)n[nH]c2cn1` [Example J15] yielded an IC50 of 44 nM. This IC50 and that of the compound before are within 1.5-fold of each other.

Take `CC(C)Oc1cc2c(-c3ccnc(N4CCN(CC(F)(F)F)CC4)c3)n[nH]c2cn1` [Example J16]: the IC50 was found to be 40 nM.

For the compound `CC(C)Oc1cc2c(-c3ccnc(N4C[C@H](O)[C@@H](N(C)C)C4)c3)n[nH]c2cn1` [Example J17], the IC50 worked out at 44 nM.

`CC(C)Oc1cc2c(-c3ccnc(N4CC(C(C)(C)O)C4)c3)n[nH]c2cn1` [Example J18] showed an IC50 of 77 nM.

In turn, `CO[C@H]1CN(c2cc(-c3n[nH]c4cnc(OC(C)C)cc34)ccn2)C[C@@H]1O` [Example J19] displayed an IC50 of 80 nM.

`CC(C)Oc1cc2c(-c3ccnc(N4CCCC(n5cncn5)C4)c3)n[nH]c2cn1` (stereo not drawn) [Example J20] had an IC50 of 28 nM.

In turn, `CC(C)Oc1cc2c(-c3ccnc(N4CC(n5cccn5)C4)c3)n[nH]c2cn1` [Example J21] came in with an IC50 of 83 nM. This IC50 is about 3-fold higher than that of the compound before.

`CC(C)Oc1cc2c(-c3ccnc(N4CC[S+]([O-])CC4)c3)n[nH]c2cn1` [Example J22] came in with an IC50 of 67 nM. The IC50 values of the last two compounds are within 1.5-fold of each other.

For the compound `CC(C)Oc1cc2c(-c3ccnc(N4CCc5oc(C6CC6)nc5C4)c3)n[nH]c2cn1` [Example J23], the half-maximal inhibitory concentration (IC50) came to 129 nM.

`CC(C)Oc1cc2c(-c3ccnc(N4CCN(CC5CCC5)CC4)c3)n[nH]c2cn1` [Example J24] showed an IC50 of 127 nM.

`Cc1nonc1N1CCN(c2cc(-c3n[nH]c4cnc(OC(C)C)cc34)ccn2)CC1` [Example J25] yielded a 50% inhibitory concentration (IC50) of 102 nM.

In turn, `CC(C)Oc1cc2c(-c3ccnc(N4CCn5cc(C(F)(F)F)nc5C4)c3)n[nH]c2cn1` [Example J26] displayed an IC50 of 135 nM.

As for `CC(C)Oc1cc2c(-c3ccnc(N4CCC(F)(F)CC4)c3)n[nH]c2cn1` [Example J27], the IC50 came to 143 nM. The IC50 values of the last two compounds are within 1.5-fold of each other.

Turning to `CC(C)Oc1cc2c(-c3ccnc(N4CCN(CC5CC5)CC4)c3)n[nH]c2cn1` [Example J28], the midpoint of inhibition, the IC50, lay at 82 nM.

Consider `CCc1nnc2n1CCN(c1cc(-c3n[nH]c4cnc(OC(C)C)cc34)ccn1)C2` [Example J29], for which the IC50 was found to be 102 nM.

For `CC(C)Oc1cc2c(-c3ccnc(N4CCC(c5cnccn5)CC4)c3)n[nH]c2cn1` [Example J30], the midpoint of inhibition, the IC50, lay at 20 nM.

For `CC(C)Oc1cc2c(-c3ccnc(N4CCn5cnnc5C4)c3)n[nH]c2cn1` [Example J31], half-maximal inhibition (IC50) required 81 nM.

Consider `CC(C)Oc1cc2c(-c3ccnc(N4CCC(C)(O)C4)c3)n[nH]c2cn1` (stereo not drawn) [Example J32], for which the IC50 was 40 nM. Compared with the last compound, the IC50 is about 2-fold lower.

For `Cc1nc2c(o1)CN(c1cc(-c3n[nH]c4cnc(OC(C)C)cc34)ccn1)CC2` [Example J33], the IC50 worked out at 46 nM.

In turn, `CC(C)Oc1cc2c(-c3ccnc(N4CCc5nc(C6CC6)oc5C4)c3)n[nH]c2cn1` [Example J34] came in with an IC50 of 55 nM.

Consider `CC(C)Oc1cc2c(-c3ccnc(N4CCN(c5nnc(C6CC6)o5)CC4)c3)n[nH]c2cn1` [Example J35], for which it took 60 nM to reach half-maximal inhibition (IC50).

With `Cc1noc(C2CN(c3cc(-c4n[nH]c5cnc(OC(C)C)cc45)ccn3)C2)n1` [Example J36], the IC50 was determined as 163 nM.

By IC50 is commonly meant the midpoint of a concentration-inhibition curve. A low value points to greater potency in that assay.
